Here are results for 62 molecules from the supplement of paper PMC9446081.

In all, about 39,000 compounds went through this assay and about 220 (0.56%) showed activity. Some of the results follow.
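Also: static incubation at 37 °C against the wild-type strain, values averaged over two biological replicates.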

For this experiment, the system named is Escherichia coli K-12 BW25113. The experiment in a line: relative growth (OD600 normalised to plate interquartile mean) (fraction); higher = less growth inhibition, active = 0.2 or less. The conditions noted are these: 50 µM; LB; incubation time: overnight (16-24 h).
With `COc1ccc(-c2coc3cc(OC(C)=O)cc(OC(C)=O)c3c2=O)cc1`, the relative growth was inactive: 0.93. For the molecule `C/C=C/c1ccc(OC)cc1`, the relative growth is inactive: 0.98.

For `C=CC[C@@H](CC(=O)N[C@@H](CO)Cc1ccccc1)C(=O)N[C@@H](C)COC(=O)[C@H](CC=C)CC(=O)OC(C)(C)C`, the relative growth is inactive: 0.994. Turning to `CCC(=O)Nc1cccc([C@@H](CCc2ccc(OC)c(OC)c2)OC(=O)[C@@H]2CCCCN2C(=O)C(=O)C(C)(C)CC)c1`, the relative growth is inactive: 1.03. As for `C[C@@H]1CN([C@@H](C)CO)S(=O)(=O)c2ccc(C#Cc3ccc(F)cc3)cc2O[C@H]1CN(C)S(=O)(=O)c1cn(C)cn1`, the relative growth is inactive: 1.02. As for `C[C@H](CO)N1C[C@H](C)[C@@H](CN(C)S(=O)(=O)c2ccc(F)cc2)OCCCC[C@H](C)Oc2ccc(NC(=O)Nc3ccc4c(c3)OCO4)cc2C1=O`, the relative growth is inactive: 1. Consider `COc1ccc(NC(=O)N(C)C[C@H]2OCCCC[C@@H](C)Oc3ccc(NC(=O)NC4CCCCC4)cc3C(=O)N([C@@H](C)CO)C[C@H]2C)cc1`, for which the relative growth was inactive: 0.988. For `CC(C)NC(=O)Nc1cccc2c1O[C@@H](CN(C)S(=O)(=O)c1cn(C)cn1)[C@H](C)CN([C@H](C)CO)C2=O` the value was inactive: 1.01; for `CC(=O)N(C)C[C@H]1Oc2ncc(C#CC(C)(C)O)cc2C(=O)N([C@@H](C)CO)C[C@H]1C`, inactive: 1.02; for `CC(C)[C@@H](CO)N1C(=O)[C@@H]2[C@H]3C(=O)OCCC/C=C\[C@H]3O[C@]23C=CCN(c2ccc4ccccc4c2)C(=O)[C@@H]13`, inactive: 1.02. Next, `C[C@H]1CN([C@@H](C)CO)C(=O)Cc2cc(NC(=O)CCN3CCOCC3)ccc2O[C@H]1CN(C)S(=O)(=O)c1cccs1`: inactive: 0.99; `N=C(N)c1ccc(OCCCCCOc2ccc(C(=N)N)cc2)cc1.O=S(=O)(O)CCO.O=S(=O)(O)CCO`: inactive: 0.897; `COc1ccc(-c2cnc3c(c2)C(=O)N([C@@H](C)CO)C[C@H](C)[C@@H](CN(C)C(=O)C2CCOCC2)O3)cc1`: inactive: 0.981. For `C[C@H]1CN([C@@H](C)CO)C(=O)c2c(c3ccccc3n2C)-c2ccccc2CO[C@@H]1CN(C)Cc1ccc(Oc2ccccc2)cc1` the value was inactive: 0.999; for `CCCCC(=O)C1CCC(c2ccc(Cl)cc2)CC1` (configuration not stated), inactive: 1.02. Take `C[C@H]1CN([C@@H](C)CO)C(=O)CCCn2nncc2CO[C@@H]1CN(C)C(=O)CCCN(C)C`: the relative growth was inactive: 0.998. For `C[C@@H]1CN([C@H](C)CO)C(=O)c2cccc(NC(=O)Nc3ccccc3)c2O[C@H]1CN(C)C(=O)Nc1cccc2ccccc12` the value was inactive: 1.01; for `c1cnc2c(c1)OCCN2`, inactive: 1.02; for `C[C@@H]1CN([C@H](C)CO)C(=O)c2cccc(NC(=O)c3cnccn3)c2O[C@H]1CN(C)C(=O)Nc1ccccc1`, inactive: 0.999. For `COc1ccccc1S(=O)(=O)N(C)C[C@@H]1OCc2cnnn2CCCC(=O)N([C@@H](C)CO)C[C@@H]1C`, the relative growth is inactive: 0.995.

For `CCN[C@H]1CCS(=O)(=O)C1`, the relative growth was inactive: 1.01. As for `C[C@H](CO)N1C[C@H](C)[C@H](CN(C)CC2CCCCC2)Oc2ccc(NC(=O)Nc3ccc(F)cc3)cc2C1=O`, the relative growth was inactive: 0.976. In the case of `O=S1(=O)COC[C@@H](c2ccccc2)N1`, the relative growth was inactive: 1.01. Regarding `C[C@@H]1CN([C@H](C)CO)C(=O)Cc2cc(NS(=O)(=O)c3ccc(F)cc3)ccc2O[C@@H]1CN(C)Cc1ccc(Cl)c(Cl)c1`, the relative growth is inactive: 0.999. With `COc1ccc(NC(=O)N(C)C[C@H]2OCCCC[C@@H](C)Oc3ccc(NC(=O)Nc4ccc(C(F)(F)F)cc4)cc3C(=O)N([C@@H](C)CO)C[C@H]2C)cc1`, the relative growth is inactive: 1.02. With `CN(C)CC(=O)N1CC(=O)N2[C@H](CO)[C@H](c3ccc(C#Cc4cccnc4)cc3)[C@@H]2C1`, the relative growth is inactive: 0.994. For `C[C@@H]1CN([C@H](C)CO)C(=O)c2cccc(NC(=O)Nc3cccc4ccccc34)c2O[C@@H]1CN(C)S(=O)(=O)c1cccs1` the value was inactive: 1.01; for `C[C@@H]1CN([C@H](C)CO)C(=O)c2cc(NC(=O)Cc3ccccc3)ccc2O[C@@H](C)CCCCO[C@@H]1CN(C)Cc1ccc(C(F)(F)F)cc1`, inactive: 1.02. Regarding `C[C@H]1CN([C@@H](C)CO)C(=O)Cc2cc(NC(=O)Nc3ccc(F)cc3)ccc2O[C@H]1CN(C)C(=O)Nc1ccc(C(F)(F)F)cc1`, the relative growth was inactive: 1.03. As for `C[C@H]1CN([C@@H](C)CO)C(=O)c2cccc(NC(=O)c3ccncc3)c2O[C@@H]1CN(C)Cc1ccc(C(=O)O)cc1`, the relative growth is inactive: 0.983.

With `CS(=O)(=O)c1ncc(Cl)c(C(=O)NCCc2ccc(S(N)(=O)=O)cc2)n1`, the relative growth is inactive: 0.998.

Turning to `C[C@@H]1CN([C@H](C)CO)C(=O)c2cccc(NC(=O)C3CCCCC3)c2O[C@@H]1CN(C)Cc1ccc(Oc2ccccc2)cc1`, the relative growth is inactive: 0.924.

For `CN(C)CCCNC(=O)C[C@H]1CC[C@@H]2[C@@H](COc3ccc(NS(C)(=O)=O)cc3C(=O)N2C)O1`, the relative growth is inactive: 0.989. For `C[C@H](CO)N1C[C@H](C)[C@@H](CN(C)CC2CCCCC2)Oc2ccc(NC(=O)CCN3CCOCC3)cc2CC1=O` the value was inactive: 0.978; for `C[C@H](NC(=O)C[C@@H]1C=C[C@@H](NC(=O)CN2CCOCC2)[C@H](CO)O1)c1ccccc1`, inactive: 0.994. As to `Cc1noc(C)c1NC(=O)N(C)C[C@@H]1OCCCC[C@@H](C)Oc2ccc(NS(=O)(=O)c3cccs3)cc2C(=O)N([C@H](C)CO)C[C@@H]1C`, the relative growth was inactive: 0.993. Consider `N=C(N)NCCC(=O)O`, for which the relative growth was inactive: 1.03. Regarding `C[C@H]1CN([C@@H](C)CO)C(=O)Cc2cc(NC(=O)Nc3ccc(C(F)(F)F)cc3)ccc2O[C@H]1CN(C)CC1CCCCC1`, the relative growth is inactive: 0.974. `Cc1noc(C)c1S(=O)(=O)Nc1ccc2c(c1)C(=O)N([C@@H](C)CO)C[C@@H](C)[C@@H](CN(C)C(=O)NC1CCCCC1)O2`: the relative growth was inactive: 0.979. Regarding `C[C@H]1CN([C@@H](C)CO)C(=O)c2cc(NC(=O)Cc3cn(C)c4ccccc34)ccc2O[C@H]1CN(C)Cc1ccc(Oc2ccccc2)cc1`, the relative growth is inactive: 1. In the case of `C[C@H]1CN([C@@H](C)CO)C(=O)Cc2cc(NC(=O)NC3CCCCC3)ccc2O[C@@H]1CN(C)S(C)(=O)=O`, the relative growth is inactive: 0.939.

With `CCCNC(=O)N1C[C@@H](O)COC[C@H]2O[C@H](CC(=O)N3CCN(C)CC3)CC[C@@H]21`, the relative growth is inactive: 0.965. Next, `CNCc1nc(C(C)C)no1`: inactive: 1.02.

As for `C[C@@H]1CN([C@H](C)CO)C(=O)Cc2cc(NS(C)(=O)=O)ccc2O[C@@H]1CN(C)S(=O)(=O)c1cn(C)cn1`, the relative growth was inactive: 1.02. As for `C[C@H]1CN([C@@H](C)CO)C(=O)c2cccc(NC(=O)c3cnccn3)c2O[C@@H]1CN(C)S(=O)(=O)c1cn(C)cn1`, the relative growth is inactive: 0.993. With `C[C@H]1CN([C@@H](C)CO)C(=O)CCCn2cc(nn2)CO[C@H]1CN(C)S(=O)(=O)c1ccc(Cl)cc1`, the relative growth was inactive: 0.936. As to `C[C@@H]1CCCCO[C@@H](CN(C)C(=O)Nc2ccc(F)cc2)[C@@H](C)CN([C@@H](C)CO)C(=O)c2cc(NC(=O)Nc3ccccc3)ccc2O1`, the relative growth is inactive: 1.03. As for `C=C(C)/C=C1/C=CC(=O)C(C)=C1`, the relative growth was inactive: 1.03. Consider `C[C@H]1CN([C@@H](C)CO)C(=O)c2cccc(NS(=O)(=O)c3ccccc3)c2O[C@@H]1CN(C)Cc1ccc(Cl)c(Cl)c1`, for which the relative growth is inactive: 0.973. As for `C[C@H]1CN([C@@H](C)CO)C(=O)Cc2cc(NC(=O)Cc3ccccc3)ccc2O[C@@H]1CN(C)Cc1ccc(C(F)(F)F)cc1`, the relative growth is inactive: 1.07.

For the molecule `O=C1CC(c2ccc(O)cc2)Oc2cc(O)cc(O)c21` (configuration not stated), the relative growth was inactive: 0.969. On to `C[C@@H]1CCCCO[C@@H](CN(C)S(=O)(=O)c2ccccc2)[C@@H](C)CN([C@H](C)CO)C(=O)c2cc(NC(=O)Nc3ccc4c(c3)OCO4)ccc2O1`, for which the relative growth was inactive: 1.04. For the molecule `COc1ccc(NC(=O)N(C)C[C@H]2Oc3ccc(NC(=O)Nc4ccc(C(F)(F)F)cc4)cc3C(=O)N([C@@H](C)CO)C[C@@H]2C)cc1`, the relative growth was inactive: 0.959. For `O=C1NC(=O)NC2(N1)C(=O)Nc1ccccc12` the value was inactive: 0.967; for `C[C@@H]1CCCCO[C@@H](CN(C)S(=O)(=O)c2cccs2)[C@H](C)CN([C@@H](C)CO)C(=O)c2cc(NS(C)(=O)=O)ccc2O1`, inactive: 1. Consider `C[C@H]1O[C@H](O[C@H]2[C@H](O)[C@@H](O)[C@@H](O[C@H]3[C@H](O)[C@@H](O)[C@H](O)O[C@@H]3CO)O[C@@H]2CO)[C@H](O)[C@@H](O)[C@@H]1N[C@H]1C=C(CO)[C@@H](O)[C@H](O)[C@H]1O`, for which the relative growth was inactive: 1.01. Take `Cc1noc(C)c1S(=O)(=O)N(C)C[C@@H]1Oc2ccc(NC(=O)Cn3cnnn3)cc2CC(=O)N([C@H](C)CO)C[C@@H]1C`: the relative growth was inactive: 1.01. Next, `CN1CCN(C(=O)C[C@@H]2CC[C@H](NC(=O)c3ccc4c(c3)OCO4)[C@H](CO)O2)CC1`: inactive: 0.987; `COc1ccc(-c2cnc3c(c2)C(=O)N([C@H](C)CO)C[C@H](C)[C@H](CN(C)Cc2cccc(C(F)(F)F)c2)O3)cc1`: inactive: 0.992; `C[C@@H]1CN([C@@H](C)CO)C(=O)c2cccc(NS(=O)(=O)c3ccc(F)cc3)c2O[C@H]1CN(C)Cc1ccc(-c2ccccc2)cc1`: inactive: 1.01. On to `CCS(=O)(=O)N1C[C@]2(CCN(CC2)S(=O)(=O)c2ccccc2)c2c(n(c3cc(ccc23)OC)C)[C@@H]1CO`, for which the relative growth is inactive: 0.988.

`C[C@@H]1CN([C@@H](C)CO)C(=O)Cc2cc(NC(=O)C3CC3)ccc2O[C@@H]1CN(C)Cc1ccc(Oc2ccccc2)cc1`: the relative growth was inactive: 0.973.
